# Some of the results follow.
# Assays:
# Test in all cases: glycan array binding signal (z-score within array); higher = stronger binding
# Conditions in all cases: glycan notation: IUPAC condensed, linker removed
# [1] = biological target: Gal(b1-3)GlcNAc6S
# Outline: (§1)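 Glycan array data came from 3228 arrays in the Consortium for Functional Glycomics database, and only arrays with an available protein sequence were kept. Glycan names were put into IUPAC-condensed notation, and columns mapping to the same glycan were averaged. The binding signal is a within-array Z-score, averaged across arrays of one protein sequence run at different concentrations or buffers and across linkers. A negative Z-score can be read as non-binding.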
# [2] = biological target: Gal(b1-3)[Fuc(a1-4)]GlcNAc
# Outline: as §1
# [3] = biological target: Gal(b1-3)[Fuc(a1-4)]GlcNAc(b1-2)Man(a1-3)[Gal(b1-3)[Fuc(a1-4)]GlcNAc(b1-2)Man(a1-6)]Man(b1-4)GlcNAc(b1-4)[Fuc(a1-6)]GlcNAc
# Outline: as §1
# [4] = biological target: Gal(b1-3)[Fuc(a1-4)]GlcNAc(b1-3)Gal(b1-3)[Fuc(a1-4)]GlcNAc
# Outline: as §1
# [5] = biological target: Gal(b1-3)[Fuc(a1-4)]GlcNAc(b1-3)Gal(b1-4)GlcNAc
# Outline: as §1
# [6] = biological target: Gal(b1-3)[Fuc(a1-4)]GlcNAc(b1-3)Gal(b1-4)[Fuc(a1-3)]GlcNAc
# Outline: as §1
# [7] = biological target: Gal(b1-3)[Fuc(a1-4)]GlcNAc(b1-6)GalNAc
# Outline: as §1
# [8] = biological target: Gal(b1-3)[GlcNAc(b1-6)]GalNAc
# Outline: as §1
# [9] = biological target: Gal(b1-3)[Neu5Ac(a2-6)]GalNAc
# Outline: as §1
# [10] = biological target: Gal(b1-3)[Neu5Ac(a2-6)]GlcNAc(b1-6)Gal(b1-4)Glc
# Outline: as §1
# [11] = biological target: Gal(b1-3)[Neu5Ac(b2-6)]GalNAc
# Outline: as §1
# [12] = biological target: Gal(b1-4)Gal
# Outline: as §1
# [13] = biological target: Gal(b1-4)GalNAc(a1-3)[Fuc(a1-2)]Gal(b1-4)GlcNAc
# Outline: as §1
# [14] = biological target: Gal(b1-4)GalNAc(b1-3)[Fuc(a1-2)]Gal(b1-4)GlcNAc
# Outline: as §1
# [15] = biological target: Gal(b1-4)Glc
# Outline: as §1
# [16] = biological target: Gal(b1-4)Glc6S
# Outline: as §1
# [17] = biological target: Gal(b1-4)GlcNAc
# Outline: as §1
# [18] = biological target: Gal(b1-4)GlcNAc(a1-6)Gal(b1-4)GlcNAc
# Outline: as §1
# [19] = biological target: Gal(b1-4)GlcNAc(b1-2)Man
# Outline: as §1
# [20] = biological target: Gal(b1-4)GlcNAc(b1-2)Man(a1-3)Man(b1-4)GlcNAc(b1-4)GlcNAc
# Outline: as §1
# [21] = biological target: Gal(b1-4)GlcNAc(b1-2)Man(a1-3)[Gal(b1-4)GlcNAc(b1-2)Man(a1-6)]Man(b1-4)GlcNAc(b1-4)GlcNAc
# Outline: as §1
# [22] = biological target: Gal(b1-4)GlcNAc(b1-2)Man(a1-3)[Gal(b1-4)GlcNAc(b1-2)Man(a1-6)]Man(b1-4)GlcNAc(b1-4)[Fuc(a1-6)]GlcNAc
# Outline: as §1
# [23] = biological target: Gal(b1-4)GlcNAc(b1-2)Man(a1-3)[Gal(b1-4)GlcNAc(b1-2)][GlcNAc(b1-4)]Man(b1-4)GlcNAc(b1-4)GlcNAc
# Outline: as §1
# [24] = biological target: Gal(b1-4)GlcNAc(b1-2)Man(a1-3)[GlcNAc(b1-2)Man(a1-6)]Man(b1-4)GlcNAc(b1-4)GlcNAc
# Outline: as §1
# [25] = biological target: Gal(b1-4)GlcNAc(b1-2)Man(a1-3)[Man(a1-6)]Man(b1-4)GlcNAc(b1-4)GlcNAc
# Outline: as §1
# [26] = biological target: Gal(b1-4)GlcNAc(b1-2)Man(a1-6)Man(b1-4)GlcNAc(b1-4)GlcNAc
# Outline: as §1
# [27] = biological target: Gal(b1-4)GlcNAc(b1-2)Man(a1-6)[GlcNAc(b1-2)Man(a1-3)]Man(b1-4)GlcNAc(b1-4)GlcNAc
# Outline: as §1
# [28] = biological target: Gal(b1-4)GlcNAc(b1-2)Man(a1-6)[Man(a1-3)]Man(b1-4)GlcNAc(b1-4)GlcNAc
# Outline: as §1
# [29] = biological target: Gal(b1-4)GlcNAc(b1-2)[Gal(b1-4)GlcNAc(b1-4)]Man(a1-3)[Gal(b1-4)GlcNAc(b1-2)Man(a1-6)]Man(b1-4)GlcNAc(b1-4)GlcNAc
# Outline: as §1
# [30] = biological target: Gal(b1-4)GlcNAc(b1-2)[Gal(b1-4)GlcNAc(b1-4)]Man(a1-3)[Gal(b1-4)GlcNAc(b1-2)[Gal(b1-4)GlcNAc(b1-6)]Man(a1-6)]Man(b1-4)GlcNAc(b1-4)GlcNAc
# Outline: as §1
# [31] = biological target: Gal(b1-4)GlcNAc(b1-2)[Gal(b1-4)GlcNAc(b1-4)]Man(a1-3)[GlcNAc(b1-4)][Gal(b1-4)GlcNAc(b1-2)Man(a1-6)]Man(b1-4)GlcNAc(b1-4)GlcNAc
# Outline: as §1
# [32] = biological target: Gal(b1-4)GlcNAc(b1-2)[Gal(b1-4)GlcNAc(b1-4)]Man(a1-3)[GlcNAc(b1-4)][Gal(b1-4)GlcNAc(b1-2)[Gal(b1-4)GlcNAc(b1-6)]Man(a1-6)]Man(b1-4)GlcNAc(b1-4)GlcNAc
# Outline: as §1
# [33] = biological target: Gal(b1-4)GlcNAc(b1-2)[Gal(b1-4)GlcNAc(b1-4)]Man(a1-3)[GlcNAc(b1-4)][Gal(b1-4)GlcNAc(b1-2)[Gal(b1-4)GlcNAc(b1-6)]Man(a1-6)]Man(b1-4)GlcNAc(b1-4)[Fuc(a1-6)]GlcNAc
# Outline: as §1
# [34] = biological target: Gal(b1-4)GlcNAc(b1-2)[Gal(b1-4)GlcNAc(b1-6)]Man(a1-6)[Gal(b1-4)GlcNAc(b1-2)Man(a1-3)]Man(b1-4)GlcNAc(b1-4)GlcNAc
# Outline: as §1
# [35] = biological target: Gal(b1-4)GlcNAc(b1-2)[Gal(b1-4)GlcNAc(b1-6)]Man(a1-6)[Gal(b1-4)GlcNAc(b1-2)Man(a1-3)]Man(b1-4)GlcNAc(b1-4)[Fuc(a1-6)]GlcNAc
# Outline: as §1
# [36] = biological target: Gal(b1-4)GlcNAc(b1-2)[Gal(b1-4)GlcNAc(b1-6)]Man(a1-6)[GlcNAc(b1-4)][Gal(b1-4)GlcNAc(b1-2)Man(a1-3)]Man(b1-4)GlcNAc(b1-4)GlcNAc
# Outline: as §1
# [37] = biological target: Gal(b1-4)GlcNAc(b1-3)Gal(b1-3)GlcNAc
# Outline: as §1
# [38] = biological target: Gal(b1-4)GlcNAc(b1-3)Gal(b1-4)Glc
# Outline: as §1
# [39] = biological target: Gal(b1-4)GlcNAc(b1-3)Gal(b1-4)GlcNAc
# Outline: as §1
# [40] = biological target: Gal(b1-4)GlcNAc(b1-3)Gal(b1-4)GlcNAc(b1-3)Gal(b1-4)GlcNAc
# Outline: as §1
# [41] = biological target: Gal(b1-4)GlcNAc(b1-3)Gal(b1-4)[Fuc(a1-3)GlcNAc(b1-6)]Gal(b1-4)Glc
# Outline: as §1
# [42] = biological target: Gal(b1-4)GlcNAc(b1-3)Gal(b1-4)[Fuc(a1-3)]GlcNAc(b1-3)Gal(b1-4)[Fuc(a1-3)]GlcNAc
# Outline: as §1
# [43] = biological target: Gal(b1-4)GlcNAc(b1-3)GalNAc
# Outline: as §1
# [44] = biological target: Gal(b1-4)GlcNAc(b1-3)[Gal(b1-4)GlcNAc(b1-6)]Gal(b1-4)GlcNAc
# Outline: as §1
# [45] = biological target: Gal(b1-4)GlcNAc(b1-3)[Gal(b1-4)GlcNAc(b1-6)]GalNAc
# Outline: as §1
binder,measurement,setting,value
CIH1 (Colletotrichum higginsianum) (protein) LPQATPTTPTPTSASAAATISATSSPTCSPGPVIDYTVVSGDTLTIISQRFSSGICNIADASGITNPNFLSLGQVLQVPTYVCTPDNTSCLAKEGSDTCVEGGPATHTIVAGDTFFLVAQSLGLDVNALLAANEGVDPLLLQIGDVINIPVC,glycan array binding signal (z-score),[1],-0.064
same,glycan array binding signal (z-score),[2],-0.054
same,glycan array binding signal (z-score),[3],-0.025
same,glycan array binding signal (z-score),[4],-0.078
same,glycan array binding signal (z-score),[5],-0.063
same,glycan array binding signal (z-score),[6],-0.046
same,glycan array binding signal (z-score),[7],-0.051
same,glycan array binding signal (z-score),[8],-0.078
same,glycan array binding signal (z-score),[9],-0.07
same,glycan array binding signal (z-score),[10],-0.071
same,glycan array binding signal (z-score),[11],-0.073
same,glycan array binding signal (z-score),[12],-0.055
same,glycan array binding signal (z-score),[13],-0.09
same,glycan array binding signal (z-score),[14],-0.067
same,glycan array binding signal (z-score),[15],-0.042
same,glycan array binding signal (z-score),[16],-0.078
same,glycan array binding signal (z-score),[17],-0.054
same,glycan array binding signal (z-score),[18],-0.094
same,glycan array binding signal (z-score),[19],-0.082
same,glycan array binding signal (z-score),[20],-0.093
same,glycan array binding signal (z-score),[21],-0.074
same,glycan array binding signal (z-score),[22],-0.084
same,glycan array binding signal (z-score),[23],-0.06
same,glycan array binding signal (z-score),[24],-0.081
same,glycan array binding signal (z-score),[25],-0.059
same,glycan array binding signal (z-score),[26],-0.065
same,glycan array binding signal (z-score),[27],-0.085
same,glycan array binding signal (z-score),[28],-0.064
same,glycan array binding signal (z-score),[29],-0.069
same,glycan array binding signal (z-score),[30],-0.07
same,glycan array binding signal (z-score),[31],-0.014
same,glycan array binding signal (z-score),[32],-0.064
same,glycan array binding signal (z-score),[33],-0.059
same,glycan array binding signal (z-score),[34],-0.062
same,glycan array binding signal (z-score),[35],-0.069
same,glycan array binding signal (z-score),[36],-0.084
same,glycan array binding signal (z-score),[37],-0.038
same,glycan array binding signal (z-score),[38],-0.08
same,glycan array binding signal (z-score),[39],-0.067
same,glycan array binding signal (z-score),[40],-0.084
same,glycan array binding signal (z-score),[41],-0.061
same,glycan array binding signal (z-score),[42],-0.079
same,glycan array binding signal (z-score),[43],-0.071
same,glycan array binding signal (z-score),[44],-0.07
same,glycan array binding signal (z-score),[45],-0.05

# Source: the supplement of paper PMC8728848
